Laboratory results as given in patent publication US20030104406A1 (Pfizer, published 2003).

Molecular target: T1, purified recombinant human mature GDF-8 (dimer) (human, UniProt O14793 267-375, biotinylated with Sulfo-NHS-Biotin in the ActRIIB ELISAs; 125I-labelled (chloramine T) in the L6 cell assays; labelled residues not stated)
T1 construct: It runs as a dimer on SDS-PAGE; also called myostatin; biotinylated GDF-8
T1 sequence: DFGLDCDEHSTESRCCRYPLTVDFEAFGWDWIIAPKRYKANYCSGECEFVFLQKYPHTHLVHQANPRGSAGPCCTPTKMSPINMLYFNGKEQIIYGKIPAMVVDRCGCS
Assay: ActRIIB competition ELISA with biotinylated GDF-8

B1: Human GDF-8 Propeptide-IgG1 wt Fc Fusion Protein (FIG. 11A) (Fc fusion)
chain: not shown
notes: The Fc is 232 amino acids of the human IgG1 constant region, starting at the hinge; also called human GDF-8 propeptide-IgG1 Fc fusion protein
binding result: binds
